Measurements taken from PMC4336329 (PLoS ONE, 2015).
The whole screen tested about 310,000 compounds, of which about 14,000 (4.5%) showed an effect of 50% or more. The effect is printed as a negative number. The list shows a part of the results.

Target: human ether-à-go-go-related gene (hERG) potassium channel (human, UniProt Q12809)
Experiment: primary screen, population patch clamp on CHO cells stably expressing hERG
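Also: peak tail current of the secondary pulse compared with the same well before compound.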

Chain of human ether-à-go-go-related gene (hERG) potassium channel (Q12809 whole entry, looked up): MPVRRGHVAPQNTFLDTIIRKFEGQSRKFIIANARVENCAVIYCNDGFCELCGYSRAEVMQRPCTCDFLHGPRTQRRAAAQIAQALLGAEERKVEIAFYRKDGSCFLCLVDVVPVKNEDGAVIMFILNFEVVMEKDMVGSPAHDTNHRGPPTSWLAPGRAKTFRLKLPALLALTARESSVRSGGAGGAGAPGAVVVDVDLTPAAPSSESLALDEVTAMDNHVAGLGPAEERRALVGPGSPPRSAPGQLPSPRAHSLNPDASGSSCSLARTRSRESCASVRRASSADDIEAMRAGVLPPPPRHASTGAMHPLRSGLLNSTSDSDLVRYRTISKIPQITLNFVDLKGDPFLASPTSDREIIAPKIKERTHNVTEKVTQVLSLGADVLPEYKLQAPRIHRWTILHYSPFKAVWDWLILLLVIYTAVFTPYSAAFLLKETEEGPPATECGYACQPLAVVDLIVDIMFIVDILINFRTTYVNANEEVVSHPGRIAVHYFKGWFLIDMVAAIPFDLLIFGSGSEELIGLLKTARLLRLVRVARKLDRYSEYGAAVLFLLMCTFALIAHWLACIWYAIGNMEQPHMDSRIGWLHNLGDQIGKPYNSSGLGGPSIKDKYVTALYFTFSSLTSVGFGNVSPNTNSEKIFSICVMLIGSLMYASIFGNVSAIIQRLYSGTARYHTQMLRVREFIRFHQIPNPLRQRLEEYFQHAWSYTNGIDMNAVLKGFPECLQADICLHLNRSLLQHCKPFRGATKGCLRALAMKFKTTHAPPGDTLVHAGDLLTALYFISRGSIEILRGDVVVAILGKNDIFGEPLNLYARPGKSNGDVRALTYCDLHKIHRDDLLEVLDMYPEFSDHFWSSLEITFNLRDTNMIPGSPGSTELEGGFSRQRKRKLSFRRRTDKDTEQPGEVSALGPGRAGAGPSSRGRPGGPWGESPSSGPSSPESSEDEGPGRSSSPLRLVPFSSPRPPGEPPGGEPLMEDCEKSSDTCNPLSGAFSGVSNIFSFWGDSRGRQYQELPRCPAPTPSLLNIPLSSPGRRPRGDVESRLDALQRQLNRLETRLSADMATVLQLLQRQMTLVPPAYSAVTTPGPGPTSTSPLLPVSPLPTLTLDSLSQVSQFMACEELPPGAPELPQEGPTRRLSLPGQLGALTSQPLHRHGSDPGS

| SMILES | hERG current change (%, negative = inhibition) at 10uM |
| --- | --- |
| S=c1[nH]nc(COc2ccccc2)n1/N=C/c1ccc(Cl)cc1Cl | 18.2% |
| Cc1cnc(NC(=O)CN2CCN(c3ccccc3F)CC2)s1.Cl | 12.2% |
| CCOC(=O)C1CCN(Cc2cn(C)nc2-c2ccc(Oc3ccccc3)cc2)CC1 | -44.9% |
| Cc1ccc(Cl)cc1N1CCN(S(=O)(=O)c2ccc3c(c2)OCCO3)CC1 | 10.3% |
| NC(=O)N/N=C/c1cc(Br)ccc1OC(=O)c1ccccc1 | 25.4% |
| CCOc1cc(C2Nc3ccccc3NC3=C2C(=O)CC(C)(C)C3)ccc1OC(C)=O (centres unmarked) | 1.7% |
| S=C(NCCc1ccncc1)Nc1cccc2ccccc12 | 2.94% |
| CCSC1=N/C(=C\c2ccccc2)C(=O)N1c1ccc(OC)cc1 | 6.36% |
| COc1ccc(C2NC(=O)C(=O)/C2=C(\O)c2ccc(Cl)cc2)cc1OC (centres unmarked) | 3.6% |
| CC(=O)Nc1ccc(NC(=O)CSc2nc3nc(C)cc(C)c3c(=O)[nH]2)cc1 | 14.7% |
| C=CCn1c(CCNC(=O)c2ccccc2F)nnc1SCc1nc2ccccc2c(=O)[nH]1 | -12.5% |
| CCN1CCN(CC(=O)Nc2sc3c(c2C#N)CCC(C)C3)CC1 (centres unmarked) | -51.7% |
| COC(=O)c1cc(C)nc(Sc2ccccc2N)n1 | 20.9% |
| O=C(COc1ccccc1)NCc1cccs1 | 1.66% |
| O=C(CCSCCc1ccccn1)Nc1ccc(Cl)cn1 | -35.4% |
| COc1ccc2[nH]cc(CCN=C(N)N)c2c1.I | 12% |
| COC(=O)C1CN(C(=O)COc2ccccc2)c2ccccc2O1 (centres unmarked) | 11.1% |
| Cc1cccc2sc(NC(=O)C3CC3)nc12 | 6.96% |
| COC(=O)c1ccccc1NC(=O)C1CCN(S(=O)(=O)c2cc(OC)ccc2OC)CC1 | -17.8% |
| Cc1cccc(-c2nc(CS(=O)CC(=O)NCC3CCCO3)c(C)o2)c1 (centres unmarked) | -5.24% |
| CCN(CC)C(=O)Sc1cccc2cccnc12 | 8.19% |
| CC1(C)CC(CCNS(=O)(=O)c2ccccc2)(c2ccccc2)CCO1 (centres unmarked) | -1.24% |
| CCCC(=O)Nc1ccc(C(=O)COC(=O)C2CC2C)cc1 (centres unmarked) | 5.46% |
| COc1ccc(C(=O)NCc2ccccc2OC)cc1 | -10.3% |
| CCOC(=O)c1ccc(NC(=O)CSc2nnc(CNC(=O)c3ccco3)o2)cc1 | 16.4% |
| Cc1cc(NC(=O)c2ccc3[nH]c(C)c(C)c3c2)ccn1 | -2.11% |
